MIC by broth microdilution (CLSI, 0.25-128 µg/mL, 18 h, 37 °C) of Gram-negative wastewater isolates picked on carbapenem-selective plates; higher = less susceptible. No active / inactive call. Isolates were selected for resistance.
Tests used:
Assay in all cases: Broth microdilution (CLSI), cation-adjusted Mueller-Hinton broth, two-fold steps from 0.25 to 128 µg/mL, 18 h at 37 °C.
Ertapenem = compound: C[C@@H](O)[C@H]1C(=O)N2C(C(=O)O)=C(S[C@@H]3CN[C@H](C(=O)Nc4cccc(C(=O)O)c4)C3)[C@H](C)[C@H]12 [Ertapenem]
Imipenem = compound: C[C@@H](O)[C@H]1C(=O)N2C(C(=O)O)=C(SCCNC=N)C[C@H]12 [Imipenem]
Meropenem = compound: C[C@@H](O)[C@H]1C(=O)N2C(C(=O)O)=C(S[C@@H]3CN[C@H](C(=O)N(C)C)C3)[C@H](C)[C@H]12 [Meropenem]

Test System | MIC (Ertapenem) | MIC (Imipenem) | MIC (Meropenem)
Enterobacter cloacae isolate primary sludge #193 (carbapenemase genes (PCR): KPC) | 16 µg/mL | 16 µg/mL | 32 µg/mL
Enterobacter cloacae isolate primary sludge #35 (carbapenemase genes (PCR): KPC) | 64 µg/mL | 64 µg/mL | 64 µg/mL
Aeromonas caviae isolate primary sludge #32 (carbapenemase genes (PCR): KPC) | 64 µg/mL | 32 µg/mL | 128 µg/mL
Klebsiella oxytoca isolate primary sludge #222 (carbapenemase genes (PCR): KPC) | 16 µg/mL | 32 µg/mL | 32 µg/mL
Kluyvera cryocrescens isolate sewage #58 (carbapenemase genes (PCR): KPC) | 8 µg/mL | 16 µg/mL | 32 µg/mL
Klebsiella pneumoniae isolate sewage #212 (carbapenemase genes (PCR): KPC+GES) | 64 µg/mL | 8 µg/mL | 32 µg/mL
Enterobacter cloacae isolate sewage #92 (carbapenemase genes (PCR): KPC) | 32 µg/mL | 32 µg/mL | 32 µg/mL
Klebsiella pneumoniae isolate sewage #61 (carbapenemase genes (PCR): OXA-48) | 64 µg/mL | 128 µg/mL | 128 µg/mL
Klebsiella pneumoniae isolate sewage #9 (carbapenemase genes (PCR): KPC) | 8 µg/mL | 32 µg/mL | > 128 µg/mL
Klebsiella pneumoniae isolate sewage #216 (carbapenemase genes (PCR): KPC) | 16 µg/mL | 8 µg/mL | 32 µg/mL
Pseudomonas putida isolate secondary sludge #57 (carbapenemase genes (PCR): IMP) | 64 µg/mL | 128 µg/mL | 64 µg/mL
Klebsiella variicola isolate sewage #4 (carbapenemase genes (PCR): KPC) | 4 µg/mL | 8 µg/mL | 32 µg/mL
Klebsiella oxytoca isolate primary sludge #138 (carbapenemase genes (PCR): KPC) | 16 µg/mL | 32 µg/mL | 64 µg/mL
Enterobacter cloacae isolate secondary sludge #59 (carbapenemase genes (PCR): KPC) | 16 µg/mL | 32 µg/mL | 64 µg/mL
Klebsiella oxytoca isolate primary sludge #205 (carbapenemase genes (PCR): KPC) | 4 µg/mL | 16 µg/mL | 16 µg/mL
Escherichia coli isolate sewage #225 (carbapenemase genes (PCR): KPC) | 8 µg/mL | 16 µg/mL | 64 µg/mL
Klebsiella variicola isolate secondary sludge #22 (carbapenemase genes (PCR): KPC) | 64 µg/mL | 64 µg/mL | 128 µg/mL
Citrobacter freundii isolate secondary sludge #161 (carbapenemase genes (PCR): KPC) | 32 µg/mL | 16 µg/mL | 32 µg/mL
Enterobacter kobei isolate sewage #11 (carbapenemase genes (PCR): KPC) | 4 µg/mL | 16 µg/mL | 32 µg/mL
Enterobacter cloacae isolate primary sludge #77 (carbapenemase genes (PCR): KPC) | 8 µg/mL | 32 µg/mL | 64 µg/mL
Klebsiella pneumoniae isolate secondary sludge #173 (carbapenemase genes (PCR): KPC) | 8 µg/mL | 16 µg/mL | 64 µg/mL
Enterobacter cloacae isolate sewage #109 (carbapenemase genes (PCR): KPC) | 64 µg/mL | 64 µg/mL | 64 µg/mL
Klebsiella variicola isolate primary sludge #60 (carbapenemase genes (PCR): GES) | 32 µg/mL | 32 µg/mL | 64 µg/mL
Klebsiella pneumoniae isolate sewage #30 (carbapenemase genes (PCR): KPC+GES) | 64 µg/mL | 64 µg/mL | 128 µg/mL
Klebsiella pneumoniae isolate sewage #220 (carbapenemase genes (PCR): KPC+GES) | 16 µg/mL | 32 µg/mL | 32 µg/mL

Test System | MIC (Ertapenem) | MIC (Imipenem) | MIC (Meropenem)
Pseudomonas putida isolate secondary sludge #48 (carbapenemase genes (PCR): IMP) | 64 µg/mL | 32 µg/mL | > 128 µg/mL
Pseudomonas aeruginosa isolate primary sludge #254 (carbapenemase genes (PCR): VIM) | 8 µg/mL | 32 µg/mL | 64 µg/mL
Enterobacter cloacae isolate secondary sludge #73 (carbapenemase genes (PCR): KPC) | 8 µg/mL | 16 µg/mL | 32 µg/mL
Enterobacter cloacae isolate sewage #123 (carbapenemase genes (PCR): KPC) | 8 µg/mL | 32 µg/mL | 64 µg/mL
Klebsiella pneumoniae isolate secondary sludge #179 (carbapenemase genes (PCR): KPC) | 8 µg/mL | 16 µg/mL | 32 µg/mL
Citrobacter braakii isolate primary sludge #94 (carbapenemase genes (PCR): KPC) | 4 µg/mL | 8 µg/mL | 32 µg/mL
Enterobacter cloacae isolate primary sludge #21 (carbapenemase genes (PCR): KPC) | 64 µg/mL | 128 µg/mL | 64 µg/mL
Klebsiella oxytoca isolate primary sludge #133 (carbapenemase genes (PCR): KPC) | 16 µg/mL | 64 µg/mL | 64 µg/mL
Stenotrophomonas maltophilia isolate secondary sludge #158 (carbapenemase genes (PCR): ND) | 16 µg/mL | 32 µg/mL | 64 µg/mL
Klebsiella oxytoca isolate primary sludge #206 (carbapenemase genes (PCR): KPC) | 8 µg/mL | 16 µg/mL | 16 µg/mL
Stenotrophomonas maltophilia isolate secondary sludge #26 (carbapenemase genes (PCR): ND) | 64 µg/mL | 128 µg/mL | 128 µg/mL
Klebsiella oxytoca isolate secondary sludge #194 (carbapenemase genes (PCR): KPC) | 8 µg/mL | 32 µg/mL | 64 µg/mL
Klebsiella pneumoniae isolate secondary sludge #87 (carbapenemase genes (PCR): KPC) | 32 µg/mL | 64 µg/mL | 128 µg/mL
Klebsiella pneumoniae isolate primary sludge #249 (carbapenemase genes (PCR): KPC) | 32 µg/mL | 64 µg/mL | > 128 µg/mL
Enterobacter cloacae isolate sewage #208 (carbapenemase genes (PCR): KPC) | 64 µg/mL | 8 µg/mL | 16 µg/mL
Klebsiella pneumoniae isolate secondary sludge #193 (carbapenemase genes (PCR): KPC) | 8 µg/mL | 32 µg/mL | 64 µg/mL
Pseudomonas putida isolate sewage #98 (carbapenemase genes (PCR): IMP) | 64 µg/mL | 64 µg/mL | 128 µg/mL
Klebsiella pneumoniae isolate secondary sludge #176 (carbapenemase genes (PCR): KPC) | 8 µg/mL | 16 µg/mL | 32 µg/mL
Klebsiella variicola isolate secondary sludge #78 (carbapenemase genes (PCR): KPC+GES) | 16 µg/mL | 32 µg/mL | 64 µg/mL
Enterobacter kobei isolate sewage #20 (carbapenemase genes (PCR): KPC) | 64 µg/mL | 128 µg/mL | 128 µg/mL
Pseudomonas aeruginosa isolate secondary sludge #209 (carbapenemase genes (PCR): VIM) | 8 µg/mL | 32 µg/mL | 64 µg/mL
Klebsiella pneumoniae isolate primary sludge #157 (carbapenemase genes (PCR): KPC) | 32 µg/mL | 64 µg/mL | 128 µg/mL
Kluyvera cryocrescens isolate primary sludge #50 (carbapenemase genes (PCR): KPC) | 64 µg/mL | 128 µg/mL | 128 µg/mL
Enterobacter cloacae isolate sewage #147 (carbapenemase genes (PCR): KPC) | 4 µg/mL | 16 µg/mL | 32 µg/mL
Klebsiella pneumoniae isolate secondary sludge #183 (carbapenemase genes (PCR): KPC) | 8 µg/mL | 32 µg/mL | 64 µg/mL

— the supplement of paper PMC10886265
